Results as given in PubChem BioAssay AID1346428 (National Center for Advancing Translational Sciences (NCATS), 2018).
Among all 48,000 compounds or so, about 1,200 (2.5%) were called active. Roughly 2% stayed inconclusive and do not appear here.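 Rule for the calls: active = activation of at least 60% and not above a set upper limit (about 1 call in 100 departs from these limits); inconclusive = activation of 40% to 60%, or above that upper limit; inactive = activation under 40%.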 The list shows a part of the results.

Molecular target: Probable G-protein coupled receptor 32 (Homo sapiens) (UniProt O75388)
UniProt O75388, sequence (O75388 whole entry, looked up): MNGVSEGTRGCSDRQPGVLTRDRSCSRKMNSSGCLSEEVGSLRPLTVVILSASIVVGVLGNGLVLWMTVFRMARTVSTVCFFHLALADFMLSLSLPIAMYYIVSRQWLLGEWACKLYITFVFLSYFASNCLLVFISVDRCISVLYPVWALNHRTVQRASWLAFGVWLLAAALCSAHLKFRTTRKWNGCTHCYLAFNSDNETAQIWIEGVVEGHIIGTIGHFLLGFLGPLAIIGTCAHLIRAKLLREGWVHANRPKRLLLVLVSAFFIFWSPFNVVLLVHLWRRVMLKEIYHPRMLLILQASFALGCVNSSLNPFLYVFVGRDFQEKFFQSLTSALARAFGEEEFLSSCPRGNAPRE
Assay: qHTS for Agonists of Human Resolvin D1 Receptor DRV1; note: 0% is about no effect
Conditions: CHO-K1 GPR32 beta-arrestin PathHunter luminescence, 90 min; at 76.9 µM; hits give high values; zero percent set by DMSO-only wells
Summary of the method: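 Using DMSO wells as EC0, agonist-induced signal was taken as chemiluminescence from beta-Gal reconstituted upon beta-arrestin recruitment to GPR32 in CHO-K1 cells after 90 min compound treatment.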

activation, active:
COc1cccc(NC(=O)Cn2c(=O)n(Cc3ccco3)c(=O)c3cc(OC)c(OC)cc32)c1 74%, Cc1ccc(CNC(=O)c2ccc(-c3nc(CS(=O)(=O)c4ccc(C)cc4)c(C)o3)cc2)cc1 110%

activation, inactive:
Cc1ccc(NCc2cccn2-c2nnc(N3CCC(C(=O)NCc4ccc(F)cc4)CC3)s2)cc1 -21.6%, CCn1ccc2cc(S(=O)(=O)N3CCC(C(=O)NCc4ccc(F)cc4)CC3)ccc21 21.4%, Cc1cccc(OCC(=O)Nc2ccccc2OCc2cc(=O)n3cc(C)ccc3n2)c1 -6.87%, Cc1ccc(NC(=O)CSc2nnc(COc3ccc(Cl)cc3)o2)c(C)c1 23.1%, O=C(Nc1ccc2nc(SCC(=O)N3CCOCC3)sc2c1)c1ccccc1Cl -2.2%, O=C(Cn1c(=O)n2nc(-c3cccc(F)c3)nc2c2ccccc21)NCc1ccc(Cl)cc1 21.7%, CNC(=O)C1CCN(c2nc3ccccc3nc2C(F)(F)F)CC1 -6.72%, O=C(Nc1ccc(C(F)(F)F)cc1)N1CCC(N2CCCCC2)CC1 -11.1%, CCc1ccc(NC(=O)N2CCN(C(=O)c3nsc4ccccc34)CC2)cc1 -4.85%, Cc1ccsc1CN1CCc2nc(N3CCN(c4ccccc4F)CC3)ncc2C1 -7.69%, COc1cc(Cl)c(C)cc1NC(=O)c1cnc2c(-c3cccc(C)c3)c(C)nn2c1C -14.8%, CCOc1ccc(OCC)c(Nc2nc3ccc(Cl)cc3n3cnnc23)c1 -20.6%, COc1cccc(CNC(=O)Cn2c(C)c3cnn(-c4ccccc4)c(=O)c3c2C)c1 -19.2%, CCCN(C(=O)Cn1cc(S(=O)(=O)N2CCN(c3ccccc3F)CC2)c2ccccc2c1=O)c1cccc(C)c1 -3.94%, CC(C)CN(CCNC(=O)c1cc(-c2ccc(Cl)s2)nc2ccccc12)CC(C)C -11.4%, CC(C)(C)C(=O)Cn1c(=O)n(-c2ccc(Cl)c(Cl)c2)c(=O)c2c3c(sc21)CCCC3 -2.03%, COCc1cc(C)nc2sc(C(=O)Nc3cc(C)ccc3F)c(N)c12 -20.4%, Cc1cc(C)cc(N2CCn3c2nc2c3c(=O)n(CCCc3ccccc3)c(=O)n2C)c1 -4.5%, COc1ccc(CCNC(=O)Cn2cc(C(=O)c3ccc(F)cc3)c(=O)c3ccc(C)nc32)cc1OC -0.903%, Cc1ccc(CNC(=O)CCC(=O)N2CCSc3ccccc32)cc1 -13.4%, CN(C(=O)CSc1nnc(-c2ccc([N+](=O)[O-])cc2)o1)c1ccccc1 33.7%, Cc1ccc(CNC(=O)CCCn2c(=O)c3ccccc3n(Cc3ccc(Cl)cc3)c2=O)cc1 -0.341%, COCCCNC(=O)C1CCCN(c2nn3cc(-c4ccc(C)cc4)nc3s2)C1 (stereo not drawn) -12.1%, Cc1ccc(-c2nc3cc(C(C)C)ccc3o2)cc1NC(=O)c1cc([N+](=O)[O-])ccc1N1CCOCC1 -7.78%, CCOc1ccc(-c2noc(CSc3nnc(Cc4ccccc4)n3-c3cccc(C)c3)n2)cc1 -27.8%, CCOc1ccc(NC(=O)CN(C)S(=O)(=O)c2cnc[nH]2)cc1 -8.69%, O=C(CSc1nnc2[nH]c(=O)cc(-c3ccccc3)n12)Nc1cc(C(F)(F)F)ccc1Cl -6.12%, Nc1c(C(=O)Nc2cccc(C(F)(F)F)c2)c2ccccn2c1C(=O)c1ccccc1 31.3%, CCC1Nc2cc(Cl)c(S(N)(=O)=O)cc2S(=O)(=O)N1 (stereo not drawn) -13.9%, CC(=O)Nc1nonc1-c1nc2ccccc2n1Cc1ccccc1Br -16.7%, COc1cc2c(cc1OC)C(COc1ccc3c(C)cc(=O)oc3c1)N(C(=O)CC(C)C)CC2 (stereo not drawn) -15.1%, Cc1ccc2oc(-c3cc(NC(=O)/C=C/c4ccco4)ccc3Cl)nc2c1 -16.4%, Cc1ccc2c(c1)N(C(=O)Nc1cccc3c1CCCC3)CC(C)O2 (stereo not drawn) -31.6%, Brc1ccc2nc(SCCOc3ccccc3)[nH]c2c1 15.3%, CCOC(=O)c1noc2nc(C)n(Cc3ccc([N+](=O)[O-])cc3)c(=O)c12 -4.82%, Cc1cccc(Cn2nnc3c(=O)[nH]c(C4CCN(C(=O)c5ccc(F)cc5)CC4)nc32)c1 -12.5%, COC(=O)c1cc(NC(=O)c2ccc(-c3ccc(Cl)cc3Cl)o2)cc(C(=O)OC)c1 -1.51%, COc1ccc(NC(=O)CCc2c(C)nc3c(-c4ccc(F)cc4)c(C)nn3c2C)c(OC)c1 8.5%, Cc1ccccc1CN1CCCN(CC(=O)Nc2ccc3c(c2)OCCO3)S1(=O)=O 26.7%, CCn1c(=O)cc(SCC(=O)N2CCN(c3ccccc3F)CC2)c2ccccc21 -1.05%, O=C(NCc1cccc(Cl)c1)C1CCCN(c2ncnc3onc(-c4ccc(F)cc4)c23)C1 (stereo not drawn) -17.9%, COc1ccccc1NC(=O)c1cc(S(=O)(=O)NCCC2=CCCCC2)ccc1F -15.7%, CCOc1ccc(NC(=O)c2c(NC(=O)c3cccs3)sc3c2CCC(C(C)(C)C)C3)cc1 (stereo not drawn) -20.7%, CN1CCN(C(CNC(=O)c2ccccc2)c2ccc3c(c2)OCO3)CC1 (stereo not drawn) -0.989%, Cc1ccc(S(=O)(=O)c2cn(Cc3ccc(F)cc3)c3cc(N4CCCC4)c(F)cc3c2=O)cc1 -9.13%, CCOc1ccc(CCNC(=O)c2cc3sc(CC)cc3n2C)cc1OCC -10.6%, CCc1ccccc1NC(=O)C(=O)NCCc1sc(-c2cccc(F)c2)nc1C -1.76%, Cc1[nH]c2ccccc2c1SCCNC(=O)c1ccccc1F -14.3%, COC(=O)c1ccccc1-n1c(CCC(=O)O)ccc1-c1ccccc1 -8.55%, COc1cccc(CNC(=O)c2ccc3c(c2)nc2n3CCC(C)C2)c1OC (stereo not drawn) -7.34%, O=C(NCc1ccccc1Cl)c1cc2cccc3c2n1CCS3 -7.54%
